Measured values reported in the RNAGym collection of RNA variant scans (doi:10.1073/pnas.2313332121).
This sample is rich in variants without activity.

B1: TPR 5TU (parent)
chain: GGAUCUUCUCGAUCUAACAAAAAAGACAAAUCUGCCACAAAGCUUGAGAGCAUCUUCGGAUGCAGAGGCGGCAGCCUUCGGUGGCGCGAUAGCGCCAACGUUCUCAACUAUGACACGCAAAACGCGUGCUCCGUUGAAUGGAGUUUAUCAUG

Variants of: B1
Test: polymerase ribozyme fitness, log enrichment relative to wild type (log ratio); higher = more active; in vitro selection for triplet polymerase activity
Outline: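 Libraries of mutants in each subunit of a heterodimeric triplet polymerase ribozyme were generated by PCR and transcribed. In triplicate, each went through one in vitro selection round: annealing with biotinylated primer, partner subunit and triplets; frozen incubation at −7 °C; gel excision of extended constructs; streptavidin-bead capture; RT-PCR. Fitness, taken from Illumina sequencing of input and output libraries, is the logarithm of a genotype's enrichment over wild-type enrichment, averaged across replicates with inverse-variance weights. The logarithm is base 2, and genotypes needed ≥10 input reads and ≥1 read per output to be kept.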

Row | Variant | polymerase ribozyme fitness (log ratio)
1 | GGAUCUUCUCGAUCUAACAAAAAAGUCAAAUCUGCCACAAAGCUUGAGAGCAUCUUCGGAUGCAGAGGCGGCAGCCUUCGGUGGCGCGAUAGCGCCAACGUUCUCAACUAUGACACGCAAAGCGCGUGCUACGUUGAAUGGAGUUUAUCAUG [A26U A122G C131A] | -3.89
2 | GGAUCUUCUCGAUCUAACAAAAAAGUUAAAUCUGCCACAAAGCUUGAGAGCAUCUUCGUAUGCAGAGGCGCCAGCCUUCGGUGGCACGAUAGCGCCAACGUUCUCAACUAUGACACGCAAAACGCGUGCUCAGUUGAAUGGAGUUUAUCAUG [A26U C27U G59U G71C G86A C132A] | ≤ -4.2
3 | GGAUCUUCUCGAUCUAACAAAAAAGUCAAAUGUGCCACAAAGCUUGAGAGCAUCUUCGGAAUCAGAGGCGGCAGCCUUCGGUGGCGCGAUAGCGCCAACGUUCUCAGCUAUGACACGCAAAACGCGUGCUCCGUUGAAUGGAGUUUAUGAUG [A26U C32G U61A G62U A107G C149G] | ≤ -4.2
4 | GGAUCUUCUCGAUCUAACAAAAAAGUCAAAUCUGACACAAAGCUUGAGAGCAUCUACGGAUGCAGAGGCGGCAGCCUUCGGUGGUGCGAUAGCGCCAACGUUCUCAACUAUGACACGCAAAACGCGUGCUCCGUUGAAUGGAGUUUAUCAUG [A26U C35A U56A C85U] | ≤ -4.2
5 | GGAUCUUCUCGAUCUAACAAAAAAGUCAAAUCUGGCACAAAGCUUGAGAGCGUCUUCGGAUGCAGAGGCGGCAGCCCUCUGUGGCGCGAUAGCGCCAACGUUCUCAACUAUGACACGCAAAACGCGUGCUCCGUUGAAUGGAGUUUAUCAUG [A26U C35G A52G U77C G80U] | ≤ -4.2
6 | GGAUCUUCUCGAUCUAACAAAAAAGUCAAAUCUGGCAUAAAGCUUGAGCCCAUCUUCGGAUGCAGAGGCGGCAGCUUUCGGUGGCGCGAUAUGGCCAACGUUCUCAACUAUGACACGCUGAACGCGUGCUCCGUUGAAUGGAGUUUAUCAUG [A26U C35G C38U A49C G50C C76U G92U C93G A119U A120G] | ≤ -4.2
7 | GGAUCUUCUCGAUCUAACAAAAAAGUCAAAUCUGGCACAAAGCUUGAGAGCAUCUUCGUCUGCAGAGGCGGCAGCAUUCGGUGGCGCGAUAGCGCCAACGUUCUCAACUAUGACACGCAAAACGCGUGCUCCGUUUAAUGGAGUUUAUCAUG [A26U C35G G59U A60C C76A G136U] | ≤ -4.2
8 | GGAUCUUCUCGAUCUAACAAAAAAGUCAAAUCUGUCACAAAGCUUGACUACAUCUUCGGAUGCAGUGGCGGCAGCUUUCGGUGGCGCGAUAGUGCCAACGUUCUCAACUAUGACACGCAAAACGCGUGCUCCGUUGAAUGGAGUUUAUCUUG [A26U C35U G48C A49U G50A A66U C76U C93U A150U] | ≤ -4.2
9 | GGAUCUUCUCGAUCUAACAAAAAAGUCAAAUCUGUCACAAAGCUUGAGAGCAUCUUCGGAUGCAGAGGCGGCAGCCUUCGGUGGCGCGAGAGCGCCAACGUUCUCAACUAGGACACGCAAAACGCGUGCUCCGUUGAAUGGAGUUUAUCAUG [A26U C35U U90G U111G] | ≤ -4.2
10 | GGAUCUUCUCGAUCUAACAAAAAAGUCAAAUCUGCAACAAAGCUUGAGAGCAUCUUCCGAUGCAGAGGCGGCAGCCUUCGGUGGCGCGGUAGCUCCAACGUUCUCAACUAUGACACGCAAAACGCGUGCUCCGUUGAGUGGAGUUUAUCAUG [A26U C36A G58C A89G G94U A138G] | ≤ -4.2
11 | GGAUCUUCUCGAUCUAACAAAAAAGUCAAAUCUGCUACAAAGCUUGAGAGCAUCUUCGGAUGCAGAGGCGGCAGCCUUCGGUGGCGGGAUAGCGUCAACGUUCUCAACUAUGACACCCAAAACGCGUACUCCGUUGAAUGGAGUUUAUCAUA [A26U C36U C87G C95U G117C G128A G152A] | ≤ -4.2
12 | GGAUCUUCUCGAUCUAACAAAAAAGUCAAAUCUGCCAACAAGCUUGUGAGCAUCUUCGCAUGCAGAGGCGGCAGCCUUUGGUGGCGCGAUAGCGACAUCGUUCUCAACUAUGACACGCAAAACGCGUGCUCCGUUGAACGGAGUCAUUCAUG [A26U C38A A39C A47U G59C C79U C95A A98U U139C U145C U146A A147U] | ≤ -4.2
13 | GGAUCUUCUCGAUCUAACAAAAAAGUCAAAUCUGCCAGAAAGCUUGAGAGCAUCUUUGGAUGCAGAGGCGGCAGCCUUCGGUGGCGCGAUAGCGCCAACGUUCUCAACUAUGACACGCGAAACGCGUGCUCCGUUGAAUGGAGUUUAUCCUG [A26U C38G C57U A119G A150C] | ≤ -4.2
14 | GGAUCUUCUCGAUCUAACAAAAAAGUCAAAUCUGCCACAAAGGUUGAGAGCAUCUUCGGAUGCAGAGGCGGCAGCCUUCGGUGGGGCGAUAGCGCCAACGUUCUCAACUAUGACACGCAAAACGCGUGCUCUGUUGAAUGGAGUUUAUCAUG [A26U C43G C85G C132U] | ≤ -4.2
15 | GGAUCUUCUCGAUCUAACAAAAAAGUCAAAUCUGCCACAAAGGGUGAGUACAUCUUCGGAUGCAGAGGCGGCAGCCUUCGGUGGCGAGAUAGCGCCAACGUUCUCAACUAUGACCCGCAAAACGCGUGCUCCGUUGAAUGGAGUUUAUCAUG [A26U C43G U44G A49U G50A C87A A115C] | ≤ -4.2
16 | GGAUCUUCUCGAUCUAACAAAAAAGUCAAAUCUGCCACAAAGCUUGAGAGGUUCUUCGGAUGCAGAGGCGGCAGCAUUCGGUGGCGCGAUGGCGCCUACGUUCUCAACUAUGACACGCAAAACGCGUGCUCCGUUGAAUGGAGUAUAUCAUG [A26U C51G A52U C76A A91G A97U U145A] | ≤ -4.2
17 | GGAUCUUCUCGAUCUAACAAAAAAGUCAAAUCUGCCACAAAGCUUGAGAGGAUGUCUGGCUGCAGAGACGGCAGCCAUCGGUGGCGCCAUAGCGCCAACGUUCUCAACUAUGACACGCAAAACGCCUGCUCCGUUGAAUGGAGUUUAUCAUG [A26U C51G C54G U56C C57U A60C G68A U77A G88C G126C] | ≤ -4.2
18 | GGAUCUUCUCGAUCUAACAAAAAAGUCAAAUCUGCCACAAAGCUUGAGAGCAUAUUCGGAUGCAAAGGCGGCAGCCUUCGGUGGCGCGAUAGCGCCAGCGUUCUCAACUAUGACACGCAAAACGCGUGCUCCGUUGAAUGGAGUUUAUCAUG [A26U C54A G65A A98G] | -4.2
19 | GGAUCUUCUCGAUCUAACAAAAAAGUCAAAUCUGCCACAAAGCUUGAGAGCAUUUUGAGAUGCAGAGACGGCAGCCUUCGGUGGCACGAUAGCGCCAACGUUCUCAACUAUGACACUCAAACGGCGUGGUCCGUUGAAUGGAGUUUAUCAUG [A26U C54U C57G G58A G68A G86A G117U A122C C123G C129G] | ≤ -4.2
